# Laboratory results published in PMC2913105 (British Journal of Pharmacology, 2010).
# Target: P2Y1 receptors (Rattus norvegicus, UniProt P49651)
# Conditions: Schild analysis, 0-300 nM antagonist
smiles,measurement,setting,value
"CNc1nc(Cl)nc2c1ncn2C1CC(OP(=O)(O)O)C2(COP(=O)(O)O)CC12 (centres unmarked) [MRS2279, 2-chloro-N^6-methyl-(N)-methanocarba-2′-deoxyadenosione-3′,5′-bisphosphate]",pKD (antagonism of Ca2+ signals evoked by 2-MeSADP),agonist 2-MeSADP,8.64 ± 0.26
same,pKD (antagonism of Ca2+ signals evoked by MRS2365),agonist MRS2365,8.16 ± 0.26
